{"source": "PubChem BioAssay AID624202", "about": "(National Center for Advancing Translational Sciences (NCATS), 2012)", "note": "Screen size: about 380,000 compounds; about 4,000 (1.1%) were called active. Inconclusive means that the source gave no clear call. Such entries were picked first, then a sample of the others. Calls come from the whole dose curve; as a rule, active = well fitted activation curve with a large enough effect; inconclusive = small, poorly fitted or top-dose-only effect; inactive = no such curve, though single readings can be large or run the other way. Where the call is inconclusive, the potency comes from a doubtful curve fit. Potency is the fitted concentration of half-maximal effect; tags give direction and shape of the fitted curve."}
{"assay": "qHTS Assay to Identify Small Molecule Activators of BRCA1 Expression; note: nearly all actives have a fitted effect of over 80% in size", "conditions": "MCF7-BRCA1-FFLuc reporter, luminescence, 48 h; activation: at 46.1 µM (top of the series), scaled: vehicle 0%, 10 µM genistein 100% unless noted", "how_it_was_run": "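Quantitative HTS in MCF7 cells stably reporting BRCA1 expression via firefly luciferase. Compound treatment lasts 48 h at 37 °C in phenol-red free MEM. Activation is expressed relative to genistein at 10 microM and DMSO.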"}
{"smiles": "CCOC(=O)N/N=C(\\C)c1cccs1", "Potency": "inconclusive: 28.2 µM [activator, single point]"}
{"smiles": "CC(O)c1ccc(OCCN(C)c2ccccn2)cc1", "note": "(configuration not stated)", "Potency": "active: 11.2 µM"}
{"smiles": "CCCC(=O)Nc1nnc(/C=C/c2ccc(OC)cc2)s1", "Potency": "active: 5.62 µM"}
{"smiles": "NS(=O)(=O)c1ccc(CCNC(=O)c2ccc3ccccc3n2)cc1", "Potency": "inconclusive: 14.1 µM [activator, partial curve, poor fit]"}
{"smiles": "Cc1ccc(Nc2nc(COC(=O)C3CC3)cs2)cc1", "Potency": "active: 10 µM"}
{"smiles": "Cc1nc2ccccn2c1C(=O)/C=C/c1ccc(F)cc1", "Potency": "inconclusive: 1 µM [activator, full curve, poor fit]"}
{"smiles": "CCCCOc1ccc(C(=S)N2CCC(C(N)=O)CC2)cc1", "Potency": "active: 3.98 µM"}
{"smiles": "Oc1oc(-c2ccccc2)nc1C=NCc1ccccc1", "Potency": "active: 10 µM"}
{"smiles": "N#C/C(=C/c1ccc(N2CCOCC2)o1)C(=O)Nc1ccccc1", "Potency": "inconclusive: 2.24 µM [activator, full curve, poor fit]"}
{"smiles": "COc1ccc(NC(=O)Nc2nnc(C(C)(C)C)s2)cc1", "Potency": "inconclusive: 10 µM [activator, partial curve, poor fit]"}
{"smiles": "CCN(CC)CCNC(=O)c1ccc2c(c1NCCO)C(=O)c1ccccc1C2=O", "Potency": "inactive"}
{"smiles": "O=C(NCCn1cc(SCc2ccc(F)cc2)c2ccccc21)c1ccccc1F", "Potency": "inactive"}
{"smiles": "CC(C)(C)C1CCC(=NNC(=S)Nc2cccnc2)CC1", "note": "(configuration not stated)", "Potency": "inactive"}
{"smiles": "COc1cc(/C=N/NC(=O)CN2CCCCC2)ccc1OCc1ccc(Br)cc1", "Potency": "inconclusive: 1.58 µM [activator, full curve, poor fit]"}
{"smiles": "COC(=O)COc1ccc(C(c2c(C)[nH][nH]c2=O)c2c(C)[nH][nH]c2=O)cc1", "Potency": "inactive"}
{"smiles": "CC(=O)c1cccc(OCc2cc(C(=O)N(C)Cc3cnccn3)no2)c1", "Potency": "inconclusive: 15.8 µM [activator, partial curve, poor fit]"}
{"smiles": "O=C(N/N=C/c1cccnc1)c1ccc(NC(=O)C(c2ccccc2)c2ccccc2)cc1", "Potency": "inactive"}
{"smiles": "COCC(=O)Nc1ccc(OCc2ccccc2)cc1", "Potency": "inconclusive: 10 µM [activator, partial curve, poor fit]"}
{"smiles": "CCOC(=O)CSC1=NC(=O)/C(=C/c2ccc(Br)cc2)S1", "Potency": "inconclusive: 1.58 µM [activator, partial curve, poor fit]"}
{"smiles": "COc1ccc(C(=O)COC(=O)c2ccccc2C(=O)N(C)c2ccccc2)c(OC)c1", "Potency": "inconclusive: 12.6 µM [activator, partial curve, poor fit]"}
{"smiles": "Cc1ccc(/C(N)=N/OC(=O)CSc2ccccc2)cc1", "Potency": "active: 7.94 µM"}
{"smiles": "Cc1cccc2c1OCC/C2=N\\NC(=O)COc1ccccc1Cl", "Potency": "inconclusive: 2.51 µM [activator, partial curve, poor fit]"}
{"smiles": "Cc1ccc2cc(CCNC(=O)c3cccs3)c(=O)[nH]c2c1C", "Potency": "inconclusive: 2.51 µM [activator, partial curve, poor fit]"}
{"smiles": "CCOC(=O)/C(C#N)=C/c1ccc(N2CCCCC2)cc1", "Potency": "inconclusive: 11.2 µM [activator, partial curve, poor fit]"}
{"smiles": "COc1ccc(-c2cc(C(=O)Nc3ccccc3)on2)cc1", "Potency": "inconclusive: 25.1 µM [activator, single point]"}
{"smiles": "O=C(Nc1ccc(C2SCCS2)cc1)c1ccccc1", "Potency": "inconclusive: 0.562 µM [activator, full curve, poor fit]"}
{"smiles": "NC(=O)COC(=O)c1ccc2noc(-c3ccccc3)c2c1", "Potency": "inconclusive: 0.794 µM [activator, full curve, poor fit]"}
{"smiles": "CSc1nc(-c2ccc(Cl)cc2)nn1S(=O)(=O)c1ccc(Cl)cc1", "Potency": "active: 10 µM"}
{"smiles": "CCOc1ccc2oc(C(=O)NC(C)(C)CC)c(C)c2c1", "Potency": "inconclusive: 25.1 µM [activator, single point]"}
{"smiles": "O=C(c1cc(-c2cccs2)on1)N1CCCCC1", "Potency": "inconclusive: 1.26 µM [activator, full curve, poor fit]"}
{"smiles": "COC(=O)c1ccc2nc(-c3ccc(C)cc3)c(Cc3ccsc3)n2c1", "Potency": "inactive"}
{"smiles": "COc1ccc(Cc2nnc(NC(=O)c3ccc(OC)cc3OC)s2)cc1", "Potency": "inconclusive: 35.5 µM [activator, single point]"}
{"smiles": "CCN(CC)c1ccc(NC(=O)c2cncc(Br)c2)cc1", "Potency": "inconclusive: 1.26 µM [activator, full curve, poor fit]"}
{"smiles": "Cc1ccc(C(=O)OCC(=O)N2CCOCC2)cc1", "Potency": "inconclusive: 20 µM [activator, single point]"}
{"smiles": "CCC(=O)Nc1sc2c(c1C#N)CCCCC2", "Potency": "inconclusive: 14.1 µM [activator, single point]"}
{"smiles": "Cc1ccc(-c2cc3ncc(C#N)c(N)n3n2)cc1", "Potency": "active: 8.91 µM"}
{"smiles": "CCNc1nc(NCC)n2c(SCC(=O)Nc3ccc(C)c(C)c3)nnc2n1", "Potency": "inactive"}
{"smiles": "Cc1ccc(OCC(=O)Nc2sc3c(c2C#N)CCC3)cc1", "Potency": "inconclusive: 11.2 µM [activator, partial curve, poor fit]"}
{"smiles": "OC(c1ccc(F)cc1)c1nc(-c2cnc3ccccc3c2)cs1", "note": "(configuration not stated)", "Potency": "active: 11.2 µM"}
{"smiles": "COc1ccc2cc(CCNC(=O)c3cccs3)c(=O)[nH]c2c1", "Potency": "active: 2.82 µM"}
{"smiles": "CCC(=O)Nc1cccc(NC(=O)c2ccc3c(c2)OCCO3)c1", "Potency": "inconclusive: 11.2 µM [activator, partial curve, poor fit]"}
{"smiles": "CC(C)CCn1c(Oc2ccc(Cl)cc2)nc2c1c(=O)n(C)c(=O)n2C", "Potency": "inactive"}
{"smiles": "COc1ccc(C(=O)Cc2ccc(F)cc2)c(OC)c1", "Potency": "inconclusive: 15.8 µM [activator, partial curve, poor fit]"}
{"smiles": "CCC(=O)Nc1cccc(NC(=O)c2cc3ccccc3o2)c1", "Potency": "inconclusive: 6.31 µM [activator, partial curve, poor fit]"}
{"smiles": "CC(C)c1ccc(NC(=O)Cn2ncc3ccccc32)cc1", "Potency": "active: 10 µM"}
{"smiles": "O=C(NCCC1=CCCCC1)NC12CC3CC(CC(C3)C1)C2", "Potency": "inconclusive: 2.24 µM [activator, full curve, poor fit]"}
{"smiles": "Nc1cccc(-c2nc3ncccc3o2)c1", "Potency": "inconclusive: 20 µM [activator, single point]"}
